From the supplement of paper PMC3334620
Over roughly 33,000 sequences, “E-score (-0.5 to 0.5)” has its median near -0.053; the highest 2% begin near 0.37. This is one part of the list.

What follows are sequences tested against Hap1 (UniProt P0CE41) (assay: PBM E-score (8-mer binding enrichment) (E-score (-0.5 to 0.5)); higher = stronger / more preferred TF binding; most listed sequences are background and not binding sites). Details: protein concentration: 200 nM; construct: GST-DNA-binding domain.
Summary of the method: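 Detection of bound protein used fluorescent anti-GST, with scans normalised by masliner. The proteins were GST-tagged yeast transcription factors applied at about 100-200 nM to universal all-10-mer Agilent arrays made double-stranded by primer extension. Each ungapped eight-base word, pooled with its reverse complement, was scored with an E-score from the Universal PBM Analysis Suite.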

Sequence of UniProt P0CE41 (P0CE41 whole entry, the tested form may be a part): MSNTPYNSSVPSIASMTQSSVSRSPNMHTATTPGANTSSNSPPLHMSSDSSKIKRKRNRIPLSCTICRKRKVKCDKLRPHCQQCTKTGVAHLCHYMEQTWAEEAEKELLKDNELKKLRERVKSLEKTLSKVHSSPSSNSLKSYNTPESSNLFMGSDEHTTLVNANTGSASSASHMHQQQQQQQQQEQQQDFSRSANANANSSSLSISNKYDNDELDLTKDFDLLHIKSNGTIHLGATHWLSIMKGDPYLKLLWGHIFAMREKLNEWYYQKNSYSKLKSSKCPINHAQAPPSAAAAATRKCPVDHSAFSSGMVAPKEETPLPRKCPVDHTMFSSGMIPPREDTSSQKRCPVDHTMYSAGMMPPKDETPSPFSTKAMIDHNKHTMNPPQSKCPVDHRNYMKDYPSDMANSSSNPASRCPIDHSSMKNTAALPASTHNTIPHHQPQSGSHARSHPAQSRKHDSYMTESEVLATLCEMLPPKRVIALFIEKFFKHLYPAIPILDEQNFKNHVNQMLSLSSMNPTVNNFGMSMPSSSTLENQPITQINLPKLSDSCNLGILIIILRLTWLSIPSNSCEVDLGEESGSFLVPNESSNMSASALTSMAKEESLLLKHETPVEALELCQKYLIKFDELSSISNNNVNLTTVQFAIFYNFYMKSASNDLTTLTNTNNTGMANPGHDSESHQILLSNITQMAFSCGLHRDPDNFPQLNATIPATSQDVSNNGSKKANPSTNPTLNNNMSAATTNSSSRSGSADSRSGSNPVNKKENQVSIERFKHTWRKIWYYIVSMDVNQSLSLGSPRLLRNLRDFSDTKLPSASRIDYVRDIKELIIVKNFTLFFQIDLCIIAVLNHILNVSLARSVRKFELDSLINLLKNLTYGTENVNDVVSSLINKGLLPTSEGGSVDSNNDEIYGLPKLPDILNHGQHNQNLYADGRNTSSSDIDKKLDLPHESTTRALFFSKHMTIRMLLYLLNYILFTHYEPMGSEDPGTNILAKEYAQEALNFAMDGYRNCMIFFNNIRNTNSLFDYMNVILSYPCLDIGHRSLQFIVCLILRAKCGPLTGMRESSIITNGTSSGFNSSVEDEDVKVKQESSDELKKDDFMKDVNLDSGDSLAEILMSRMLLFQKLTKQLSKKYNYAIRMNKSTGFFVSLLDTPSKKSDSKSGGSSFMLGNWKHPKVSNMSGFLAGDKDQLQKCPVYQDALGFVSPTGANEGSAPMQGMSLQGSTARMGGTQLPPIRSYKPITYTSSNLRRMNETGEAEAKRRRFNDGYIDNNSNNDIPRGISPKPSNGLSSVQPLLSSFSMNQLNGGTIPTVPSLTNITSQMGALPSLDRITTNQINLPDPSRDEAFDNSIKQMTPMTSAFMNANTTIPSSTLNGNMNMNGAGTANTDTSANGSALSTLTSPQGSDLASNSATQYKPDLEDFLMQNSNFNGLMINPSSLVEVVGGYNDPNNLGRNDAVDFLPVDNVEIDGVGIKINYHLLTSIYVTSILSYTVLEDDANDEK

Sequence	PBM E-score
AACCCCGG	0.456
ATGGATTC	-0.0542
ACCCCTGA	-0.0894
AAGGTCAT	-0.106
CGGTGCCC	0.119
AATTGAGT	0.0215
AAAAAAGT	-0.11
CTGTAACA	-0.409
GGATGACA	0.11
ATCCAAGG	0.00753
ACAGTCGG	0.21
CTTAGTTA	-0.0967
TAACACGA	-0.00421
AGTCCTAA	-0.207
TGGACTAA	-0.117
ACACACGT	-0.263
AGCAAAAA	-0.0538
CTGGGACC	-0.161
CCGCGATC	0.185
CATTCCAC	0.0599
CTGCTCAA	-0.292
AACCATAG	-0.106
ACTGTGAC	-0.15
GGCAAGCA	-0.124
AACTCCAG	-0.0226

Sequence	PBM E-score
GGCTTAGA	-0.181
AGTTGGCA	-0.124
ACTTCACT	-0.0435
ATTTAAAG	0.218
AATAAGGA	-0.119
GCAATGAA	-0.0319
GTGATAGA	-0.212
GCGGAAGC	0.0587
GCACGTCC	0.046
ATCCTCGC	0.107
CGCGCGCA	0.238
TGTTCTAA	-0.11
AACGGGAC	0.0881
CACCCCGA	0.229
CGTACGGA	0.227
ACTATACC	0.0871
GTTGACCA	-0.0947
AAGTTACT	-0.0147
CCTAGAGG	-0.292
ATAAGCAG	-0.0967
ACCCGGGC	0.368
CATGCGTC	-0.0877
ATATCTCG	0.0854
AGCCGAGC	0.324
GAGCGAAC	-0.0203

Sequence	PBM E-score
GAGCGTCA	-0.0372
CGGTATGA	0.187
TCAATACA	-0.207
AAGAGTCA	-0.235
AATGAAAG	-0.179
AGCGAGTG	-0.0216
GTGTGCTA	-0.0704
ATAACACC	0.292
AGTCGACG	0.0145
ATTAACTC	0.159
GCCGTGAA	0.0472
TGGCGCAA	-0.139
AGAGCACC	-0.105
GGTGTCTA	-0.145
AGGGTAGC	-0.162
AGATTAAG	-0.0246
GGGTGAAA	0.103
CTACTCGA	-0.0581
TCACCGAA	0.235
AATTAGCA	0.0728
ACGTGATA	-0.278
AAAAAAGA	-0.122
AGACAGCA	-0.0022
CATACTCG	0.138
ACCGAAAG	0.222

Sequence	PBM E-score
AAGTGTTA	0.0418
TACTACAA	-0.0389
AGCGGACA	0.326
ACATAAAC	-0.11
AATAAACC	0.142
TCGCCAGA	-0.147
ATTAACGC	0.137
AATATAAC	0.149
AAATGGTT	-0.106
CGCCCGAC	0.366
CAGTCCAA	-0.299
ACACGAGA	-0.19
ATGGGCCA	-0.0182
CTAGTACC	-0.0321
GTAGGATA	-0.126
ACGAGAAG	-0.227
AATCCACG	0.0107
ATGAAGTC	0.00068
TAAGCATA	-0.129
ATGATGCG	-0.0722
CCCGAGTC	0.278
CCGCGCCG	0.308
CAACGTGA	-0.156
AATCCTTC	-0.0508
CACACCAC	-0.133

Sequence	PBM E-score
TACGTTCA	-0.193
GTTTGTTA	-0.0176
AAACTGCG	0.0326
ATGCGCGG	0.232
ATTGATCG	0.0513
ATGGCAGA	0.089
TCACAGGA	-0.221
CCATCTTC	-0.102
TACATATA	-0.0132
AGACTAGA	-0.181
TGTTGTAA	-0.00737
GGTCCGAA	0.434
ACACCAAC	-0.18
GCGGAACC	0.245
ACGCTACA	-0.264
ATAACTTG	-0.2
TCCGTCAA	0.237
ATTTACAA	-0.218
AATTTCAG	-0.255
AATAACCG	0.315
CCTTGCCC	0.0105
AGCCAAGG	-0.147
AAAACTTA	-0.0742
CTAGTCGC	-0.209
CAGGAACA	-0.251

Sequence	PBM E-score
CTAGACAA	-0.107
AGGGGGGC	-0.0922
GACGTGAA	-0.155
AACTAGCC	-0.181
GAAGCGGC	0.016
ACAGCAAG	-0.14
ACGGCCCC	-0.118
AACCCCTC	-0.14
CCGTAGAC	0.22
ACCTTCCT	-0.317
CAATAACG	0.164
CCAAGTGG	-0.158
GTATTGCA	-0.0995
TATATTCA	0.0244
TCTGTGAA	-0.101
CCCGATAA	0.417
CAGTTATA	0.109
TAGTACCA	-0.0738
CGCTCGGA	0.404
ATCCAAAC	-0.125
CGGCGCGC	0.311
AACCAGCC	0.0595
AGATTCAC	-0.0849
CATCAGCG	-0.0312
CAAAAAAA	0.0437

Sequence	PBM E-score
TATATGGA	-0.174
TACGCTAA	-0.0737
ACGTGTTC	-0.0465
AGTTCCAC	-0.051
CGTCCGTA	0.309
ACCTAGAT	-0.146
CTTGTCCA	-0.206
CAACAATC	-0.186
TAGGCCGA	0.287
CTTATTTA	-0.103
CGAGTGGA	0.107
CTGTTTTA	-0.0302
CAACATGC	-0.119
AAAAGGTC	-0.169
CCAATACC	0.158
GCACCGGA	0.353
CACGTACG	-0.0664
TGAGAGAA	-0.276
AGACGGTC	-0.0927
CCCTCTAA	-0.177
CAACTCGC	-0.119
GTCACAGA	-0.256
ATAGCGAA	-0.042
GAGGCTTA	-0.156
CGCAGTCC	-0.113

Sequence	PBM E-score
CTTCCAAC	-0.136
CGGTAGGC	0.281
GTGGCTTA	-0.326
CGTAGCAA	-0.152
AGGGGAGA	-0.0487
AGTGTACA	-0.279
TTTTAAAA	-0.086
ACACATAA	-0.135
CCCCTTAA	-0.14
TCTCGGCA	0.271
TCACGCGA	-0.0375
AACGGGAG	0.131
GCACGCAC	-0.147
GCGGGACC	0.208
GAGCTTTA	-0.0716
TAGACGGA	0.2
AAGCTGCT	-0.15
ACACGTAG	-0.246
CCTCGAGA	-0.201
ACCTCACT	-0.11
ATTGATAA	-0.198
CCTAGTAG	-0.192
CCCGACGA	0.327
CCTGGTAA	-0.0491
CAAGACGG	-0.104

Sequence	PBM E-score
ACCGAATA	-0.00539
GTCCCGGA	0.343
ACCATCGT	-0.115
CAGATGGG	-0.172
CACCATGC	-0.0514
GAGTTTTA	0.0585
AGCACAAA	-0.0883
GCGGAATA	0.209
GCATGAAC	0.00981
CGGCGTTC	0.235
GCGGTAGA	0.0847
TATACAGA	-0.188
CGCATACA	0.0372
ACTCTTAT	-0.00053
TCAGGACA	-0.13
CGCGTCTC	0.0366
CATCGCAC	-0.0397
GACCGTTA	0.315
ACCCACTG	0.167
CAGTACCC	-0.0429
ACCTAAAA	-0.14
GGCGTTCA	-0.0502
TCCCGCAA	0.171
CGTGACGA	-0.00213
ACACTACA	-0.175

Sequence	PBM E-score
ACGGAGGC	0.177
GGAGTTGA	0.172
GATCACGC	0.109
TATTACCA	0.0161
CTCCTAGC	-0.231
ACGAATAG	-0.21
CCAGTAGG	-0.0402
ACTCTCCG	0.238
TAGTACGA	-0.0518
CCCCCCTC	-0.301
TATAGTAA	-0.00677
CGAGTCGC	0.129
AAGCGCAT	-0.126
ACCAATTA	-0.114
GACAACAC	0.00568
ACGAGAGA	-0.117
ATGATGGC	-0.0442
AGCTACAA	-0.0383
AGCGGCCA	0.0331
CGATCCCC	0.185
AAAATAGA	0.0408
ATTCAGTC	0.00025
AAATCACA	-0.121
GATGCTAC	-0.104
CCCGTGCC	0.111

Sequence	PBM E-score
AGTGCTGC	-0.171
CAGTTATC	0.0285
AAAATCTA	-0.0933
AAACTCTA	-0.0924
CAGGTTAA	-0.237
CTATGAGA	-0.248
GTTTTTAA	0.0619
AACCCATA	-0.0769
ACCCCTCG	-0.00649
GCTCCACC	0.0582
AGCTCAAC	-0.104
AGTGACTG	-0.246
ACCGTCGG	0.333
ATCGCCGG	0.445
AATGAAAT	-0.117
AACTCGGT	0.188
TCTCTGAA	-0.17
GCTCTACC	-0.126
AAAAAGAA	0.123
AGTATCCC	-0.104
AACATTGT	-0.0297
ACATGATG	-0.214
AATTACGG	0.217
ATAGAATC	0.0962
GTAAGAAA	-0.092

Sequence	PBM E-score
CATCCACC	0.00069
CCAGACCG	0.231
CATAACCA	-0.209
ATTAGTGA	-0.0161
GTGAGTCA	-0.321
AACGAGTC	-0.132
AGCATTGG	-0.151
AGCCTCGC	-0.14
AGCCCGGC	0.272
AAAGTACT	-0.0859
CCCACAGC	-0.286
ATAATTAG	0.157
ACCATGTG	-0.28
TCCCATCA	-0.217
AAAGCGTC	-0.156
GCGTGGAA	0.0279
GTACAAAC	-0.0539
GGCATGTA	-0.0091
TATGGTAA	0.0559
AACCCAGG	-0.164
AGTCGGTA	0.0714
ATTGCGAA	-0.0439
TGGAAGAA	-0.0848
ATCATGCC	-0.193
ACTCTACC	-0.00698

Sequence	PBM E-score
GGTGGTAA	0.223
CGCTGTCC	0.13
CAAAAGTG	-0.11
GAGACTCC	0.0169
AGGAGAGA	-0.255
GTCAAGTA	-0.298
AAAGAGTG	-0.157
CACTGCGC	-0.204
AGTAAAAG	0.00501
GTCCACTA	-0.102
CGAAAGTC	0.107
TATGGGCA	-0.108
CGCGTGTC	0.0935
GCGGCCCC	-0.0617
TGTTTAAA	-0.208
ATCTGGAC	0.033
AGGTCAGG	-0.188
GGATTTCA	0.283
ATTTTAGC	0.0771
ATTAGGTG	-0.0617
ACAGCTAA	-0.175
GAACAAGC	-0.132
ATCATTAG	-0.16
ATCATACA	-0.143
GAAAAGCC	0.258

Sequence	PBM E-score
ACCTGGTA	-0.275
CTTGGTCA	-0.0997
GCACGCTA	-0.101
CGCTCATC	-0.0346
GCGGAAGA	0.239
CAGATCGC	0.00561
AGCGGGAG	-0.0886
ATATCCCC	0.2
GGGTCACC	-0.218
AGGGCTAC	-0.228
AGCAGCTC	-0.13
ATGGGTCC	0.153
AGCAAACC	-0.0833
ACGGTCCC	0.0918
CGGTCACG	0.167
GCCGGCTA	0.229
ATCTAGTC	0.00704
AAAACTGT	-0.126
AAACTTAC	-0.0707
